By IC50 is meant the dose at which the fit gives 50% viability; a fit beyond the top or the lowest dose is shown as a bound at that dose. AUC sums up the same curve from the lowest dose to the 256-fold higher top dose; values near 1 show little effect. For some of these results: The top dose, if marked as inferred, was derived from the fitted curves, not read from the paper. For some of these results: Drugs with an entry number were screened twice under separate entries, and the two screens often disagree.
How the values were obtained:
Experiment in all cases: Viability of human cancer cell lines after 72 h of drug (GDSC screen)
CUDC-101 = compound: C#Cc1cccc(Nc2ncnc3cc(OC)c(OCCCCCCC(=O)NO)cc23)c1 [CUDC-101]; conditions: top dose 5.12 µM; top dose inferred
Method: (§1)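 Human cancer cell lines in 384-well plates, medium with 10% serum, drug for 72 h over a 256-fold dose range (nine 2-fold or five 4-fold steps up to the top dose). Adherent lines were fixed and stained with the nucleic acid dye Syto60, suspension lines read with resazurin; signal relative to control wells, capped at 0 and 100%. One two-parameter sigmoid per drug and line, fitted in a mixed model over all curves with the slope shared within a line.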

5-Fluorouracil = compound: O=c1[nH]cc(F)c(=O)[nH]1 [5-Fluorouracil]; conditions: top dose 32 µM; top dose inferred
Method: as §1

QS11 = compound: OC[C@H](Cc1ccccc1)Nc1nc(Oc2ccc3c(c2)CCC3)nc2c1ncn2Cc1ccc(-c2ccccc2)cc1 [QS11]; conditions: top dose 10.24 µM
Method: as §1

AC220 = compound: CC(C)(C)c1cc(NC(=O)Nc2ccc(-c3cn4c(n3)sc3cc(OCCN5CCOCC5)ccc34)cc2)no1 [AC220]; conditions: top dose 1.024 µM; top dose inferred
Method: as §1

OSU-03012 = compound: NCC(=O)Nc1ccc(-n2nc(C(F)(F)F)cc2-c2ccc3c(ccc4ccccc43)c2)cc1 [OSU-03012]; conditions: top dose 16 µM; top dose inferred
Method: as §1

RDEA119 = compound: COc1cc(F)c(F)c(Nc2ccc(I)cc2F)c1NS(=O)(=O)C1(C[C@H](O)CO)CC1 [RDEA119]; conditions: top dose 5 µM, top dose inferred
Method: as §1

JNK-9L = compound: Fc1cc(-c2ccnc(Nc3ccc(-n4cnc(N5CCOCC5)n4)cc3)n2)cc(N2CCOCC2)c1 [JNK-9L]; conditions: top dose 5.12 µM; top dose inferred
Method: as §1

| Cell Line | AUC (CUDC-101) | IC50 (CUDC-101) [µM] | AUC (5-Fluorouracil) | IC50 (5-Fluorouracil) [µM] | AUC (QS11) | IC50 (QS11) [µM] | AUC (AC220) | IC50 (AC220) [µM] | AUC (OSU-03012) | IC50 (OSU-03012) [µM] | AUC (RDEA119; screen: GDSC drug entry 1014) | IC50 (RDEA119; screen: GDSC drug entry 1014) [µM] | AUC (RDEA119; screen: GDSC drug entry 1526) | IC50 (RDEA119; screen: GDSC drug entry 1526) [µM] | AUC (JNK-9L) | IC50 (JNK-9L) [µM] |
| --- | --- | --- | --- | --- | --- | --- | --- | --- | --- | --- | --- | --- | --- | --- | --- | --- |
| AMO-1 (haematopoietic neoplasm, suspension) | 0.372 | 0.15 | 0.655 | 5.03 | 0.928 | > 10.2 | 0.953 | > 1.02 | 0.71 | 3.53 | 0.856 | 3.17 | 0.903 | 4.98 | 0.615 | 0.63 |
| OV-90 (ovary, adherent) | 0.691 | 1.29 | 0.932 | > 32 | 0.912 | > 10.2 | 0.928 | > 1.02 | 0.69 | 4.01 | 0.377 | 0.13 | 0.469 | 0.251 | 0.708 | 1.47 |
| OE19 (oesophagus, adherent) | 0.81 | 3.15 | 0.959 | > 32 | 0.89 | > 10.2 | 0.982 | > 1.02 | 0.796 | 8.64 | 0.862 | > 5 | 0.927 | > 5 | 0.612 | 0.681 |
| SJSA-1 (bone, adherent) | 0.746 | 1.8 | 0.778 | 14.7 | 0.701 | 2.54 | 0.98 | > 1.02 | 0.446 | 0.701 | 0.403 | 0.163 | 0.765 | 2.05 | 0.466 | 0.255 |
| PC-3 [JPC-3] (lung adenocarcinoma, adherent) | 0.613 | 0.724 | 0.801 | 21.8 | 0.963 | > 10.2 | 0.981 | > 1.02 | 0.778 | 8.78 | 0.933 | > 5 | 0.901 | > 5 | 0.56 | 0.494 |
| BFTC-909 (kidney, adherent) | 0.735 | 1.47 | 0.957 | > 32 | 0.955 | > 10.2 | 0.984 | > 1.02 | 0.7 | 3.6 | – | – | 0.931 | > 5 | 0.559 | 0.461 |
| HUTU-80 (digestive system, adherent) | 0.374 | 0.154 | 0.677 | 5.66 | 0.634 | 1.39 | 0.99 | > 1.02 | 0.344 | 0.402 | 0.764 | 1.53 | 0.896 | 4.3 | 0.664 | 0.834 |
| NCI-H2135 (non-small cell lung carcinoma, adherent) | 0.624 | 0.694 | 0.764 | 11.3 | 0.933 | > 10.2 | 0.981 | > 1.02 | 0.799 | 7.44 | 0.991 | > 5 | 0.99 | > 5 | 0.701 | 1.15 |
| SUP-T1 (T-cell lymphoblastic leukaemia, suspension) | 0.288 | 0.0861 | 0.695 | 6.66 | 0.87 | 8.11 | 0.985 | > 1.02 | 0.623 | 2.11 | 0.99 | > 5 | 0.981 | > 5 | 0.577 | 0.509 |
| BC-1 (B-cell lymphoma, suspension) | 0.332 | 0.118 | 0.626 | 4.21 | 0.896 | 9.32 | 0.963 | > 1.02 | 0.684 | 3 | 0.986 | > 5 | 0.956 | > 5 | 0.517 | 0.354 |
| NCI-H1838 (lung adenocarcinoma, adherent) | 0.868 | > 5.12 | 0.905 | > 32 | 0.984 | > 10.2 | 0.956 | > 1.02 | 0.983 | > 16 | 0.932 | > 5 | 0.941 | > 5 | 0.944 | > 5.12 |
| NCI-H1436 (small cell lung carcinoma, suspension) | 0.474 | 0.269 | 0.863 | > 32 | 0.978 | > 10.2 | 0.973 | > 1.02 | 0.806 | 9.54 | 0.98 | > 5 | 0.98 | > 5 | 0.709 | 1.36 |
| CAL-33 (head and neck, adherent) | 0.554 | 0.451 | 0.706 | 7.6 | 0.882 | > 10.2 | 0.986 | > 1.02 | 0.705 | 3.79 | 0.574 | 0.499 | – | – | 0.618 | 0.675 |
| DND-41 (T-cell leukaemia, suspension) | 0.255 | 0.0707 | 0.671 | 5.63 | 0.815 | 4.79 | 0.917 | > 1.02 | 0.529 | 1.18 | 0.735 | 1.33 | 0.876 | 3.97 | 0.502 | 0.324 |
| CMK (acute myeloid leukaemia, suspension) | 0.357 | 0.138 | 0.615 | 3.92 | 0.885 | 8.25 | 0.939 | > 1.02 | 0.61 | 1.9 | 0.963 | > 5 | 0.975 | > 5 | 0.588 | 0.535 |
| ABC-1 (lung adenocarcinoma, adherent) | 0.469 | 0.259 | 0.834 | 27 | 0.861 | > 10.2 | 0.983 | > 1.02 | 0.641 | 2.68 | – | – | 0.905 | > 5 | 0.627 | 0.774 |
| HGC-27 (stomach, adherent) | 0.595 | 0.558 | 0.891 | – | 0.712 | 2.28 | 0.948 | > 1.02 | 0.429 | 0.661 | 0.99 | > 5 | 0.961 | > 5 | 0.456 | 0.247 |
